Measurements taken from the supplement of paper PMC12217912.
The other results are listed elsewhere or left out. The full chains were built here from the parent and the listed change. Inactive controls read about 0.05.

B1: TEV protease; numbered along this chain (parent)
chain: MGESLFKGPRDYNPISSSICHLTNESDGHTTSLYGIGFGPFIITNKHLFRRNNGTLVVQSLHGVFKVKDTTTLQQHLVDGRDMIIIRMPKDFPPFPQKLKFREPQREERICLVTTNFQTKSMSSMVSDTSCTFPSGDGIFWKHWIQTKDGQCGSPLVSTRDGFIVGIHSASNFTNTNNYFTSVPKNFMELLTNQEAQQWVSGWRLNADSVLWGGHKVFMVKPEEPFQPVKEATQL

Variants of: B1
Experiment: raw area under fraction-flipped curve 0-4 h after induction (AUC4h, not background-subtracted), DNA-recorder readout of cleavage of the substrate (dimensionless); higher = more cleavage of the substrate by the protease variant
Settings: temperature: 34 °C; time window: 0-4 h after rhamnose induction
Description: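 In vivo DNA recorder in E. coli TOP10(DE3) ΔrhaA at 34 °C. Each TEVp single-site mutant (parent TEVp 0) is paired with a single-site variant of the 7-mer TEVs (canonical ENLYFQ|S). The substrate sits between flexible linkers in a Bxb1-sfGFP-TEVs-SsrA fusion, so cleavage stabilises Bxb1 and speeds flipping of a recombination array, read by NGS. The value is the raw area under the fraction-flipped curve over 0-4 h after rhamnose induction (AUC4h), with ≥20 reads per time point. It is not background-subtracted; inactive controls average about 0.047.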
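Also: Bxb1 expression induced with 0.2% (w/v) L-rhamnose at OD600 near 0.5, cultures sampled hourly, flipped fraction per protease–substrate barcode pair counted by paired-end Illumina sequencing.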

Row | Variant | area with substrate ANLYFQS | area with substrate CNLYFQS | area with substrate DNLYFQS | area with substrate FNLYFQS | area with substrate HNLYFQS | area with substrate INLYFQS | area with substrate KNLYFQS | area with substrate LNLYFQS | area with substrate PNLYFQS | area with substrate SNLYFQS | area with substrate TNLYFQS | area with substrate WNLYFQS | area with substrate YNLYFQS | area with substrate GNLYFQS | area with substrate MNLYFQS | area with substrate NNLYFQS | area with substrate RNLYFQS | area with substrate QNLYFQS | area with substrate VNLYFQS
1 | S4N | 0.0713 | 0.0741 | 0.0964 | 0.0679 | 0.0543 | 0.0488 | 0.0702 | 0.0602 | 0.0719 | 0.0761 | 0.0874 | 0.0472 | 0.0658 |  |  |  |  |  | 
2 | S4G | 0.0601 | 0.0712 | 0.0727 |  | 0.0663 | 0.0574 | 0.0726 | 0.0626 | 0.0672 | 0.0596 | 0.0703 | 0.0572 | 0.0747 | 0.0603 | 0.0571 | 0.052 | 0.0256 |  | 
3 | S4M | 0.0604 | 0.0694 | 0.0732 | 0.0551 | 0.0646 | 0.0571 | 0.0563 | 0.0613 | 0.0453 |  | 0.0613 | 0.058 | 0.0427 | 0.0728 | 0.0627 |  |  | 0.0864 | 
4 | S4R | 0.0895 | 0.0669 | 0.0867 |  | 0.0676 | 0.0668 | 0.0667 | 0.0784 | 0.0626 | 0.0534 |  | 0.0553 | 0.0743 | 0.0771 | 0.0606 | 0.0343 |  |  | 0.0677
5 | R10P | 0.0504 | 0.0774 | 0.0689 | 0.0597 | 0.0667 | 0.0778 |  | 0.0772 |  |  | 0.0598 | 0.0787 | 0.0595 | 0.0635 | 0.0702 |  |  | 0.0635 | 0.0595
6 | R10G | 0.0656 | 0.0661 | 0.0773 | 0.0507 | 0.0588 | 0.0718 | 0.0713 |  | 0.0734 | 0.0683 | 0.0571 | 0.0595 | 0.0621 | 0.0729 | 0.0547 | 0.0778 | 0.0777 | 0.06 | 0.0487
7 | R10C | 0.0446 | 0.0756 | 0.0781 | 0.0638 | 0.0583 | 0.0654 |  | 0.0703 | 0.0769 | 0.0474 |  | 0.0618 |  | 0.0603 | 0.0512 | 0.0643 | 0.0764 |  | 
8 | R10V | 0.0624 | 0.0489 | 0.072 | 0.0705 | 0.067 | 0.0635 | 0.0843 | 0.0645 | 0.0645 | 0.061 | 0.0786 | 0.0621 | 0.0439 |  | 0.0533 |  | 0.0677 |  | 
9 | S26C | 0.061 | 0.0625 | 0.0738 | 0.0628 | 0.0606 |  |  | 0.079 |  | 0.0647 | 0.0375 | 0.07 | 0.0606 |  |  |  |  | 0.0562 | 
10 | H21D | 0.0723 | 0.0585 | 0.0269 | 0.0548 | 0.0573 |  | 0.0646 | 0.0518 | 0.0442 | 0.0631 | 0.0594 |  | 0.0547 | 0.0605 | 0.0614 | 0.0516 |  | 0.0451 | 0.0634
11 | H21G | 0.0867 | 0.0594 | 0.0818 | 0.0515 | 0.0614 | 0.0634 | 0.0664 | 0.0557 | 0.0677 | 0.0608 | 0.0613 | 0.0581 | 0.0608 |  | 0.075 | 0.0735 | 0.0624 | 0.073 | 
12 | H21W | 0.0751 | 0.0623 | 0.0832 | 0.0503 | 0.0561 | 0.0664 | 0.0588 | 0.022 | 0.0598 | 0.061 | 0.0683 | 0.0762 | 0.061 | 0.0573 | 0.0614 |  |  | 0.0694 | 0.0831
